Measured values as given in patent publication US12551573B2, “Compositions and methods for the targeting of PCSK9” (Scribe Therapeutics Inc., priority 2022, dated 2026).

B1: DOMAIN_16444 (protein, listed as Acinonyx jubatus)
chain: FQASVVFEDVAVNFTPEEWALLNRGQRKLYRDVMLETCRNLSAVGKDGSIPSLVFSEKQKFHSSGDLTRMQEGLLRSPLVE
B2: DOMAIN_15126 (protein, listed as Callithrix jacchus)
chain: VWGPLSFMDVFVDFTWEEWQLLDPAQKCLYRSVMLENYSNLVSLGYQHTKPDIIFKLEQGEELCMVQAPIPNQCCPNKVWK
B3: DOMAIN_14755 (protein)
chain: MGQLTFNDVTIEFSLEEWQCLDKPQQNLYREVMLENYRNLVFLGIAVSKPDLITCLKQGKEPWNIRRHEMVTKPPAMCSHF
modifications: Cebus imitator
B4: DOMAIN_14659 (protein, listed as Acinonyx jubatus)
chain: PQESVTFKDIAVDFTQEEWALLDASQRKLYRDVMLENIGHLVSVGYRVCKSDVISQLQQGVELWREGRGFPQGVIPDRKSS
B5: DOMAIN_12079 (protein)
chain: MGLLTFQDVTVDFTQEEWECLDLGQRGLYRDVMLENYGNLACLGLVVSKPDLVTFLEQMKDPWNVRRIETAIYPGMCLLNI
modifications: Muntiacus muntjak
B6: DOMAIN_11726 (protein, listed as Sus scrofa)
chain: AHMAFRDVAVDFTQEEWMLLSPAQRSLYREVMLENYSNMVSLGIPFSKPKLITQLEQGKETWREERKCPPATCSAEPQPEL
B7: DOMAIN_12147 (protein, listed as Neophocaena asiaeorientalis)
chain: AQGSLTLKDVAVDFTWEEWQLLDPDQKDLYRDVMLENYSNLVSVGYQVNKPDILSMLEQGEPPWTLEDEVHSHPHPETDKV
B8: DOMAIN_11851 (protein)
chain: VQEPVTFKDVAVDFTQEEWGQLDLVQRTLYRDVMLETYGHLLSVGNQIAKPEVISLLEQGEEPWSVEQACPQRTGPEWVRN
modifications: Nomascus leucogenys
B9: DOMAIN_11612 (protein, listed as Loxodonta africana)
chain: VVFTDVAVDFSQEEWECLDSYQRSLYRDVILENYSNLVSLGGGSISKPDVVTLLEQGKEPWMVVRDTKIRWSLGLESNYDA
B10: DOMAIN_11933 (protein, listed as Neophocaena asiaeorientalis)
chain: AHGSVMFSDVSIDFSQEEWDYLDLEQRDLYRDVMLENYSNLVSLGCFVSKPDVISLLEQGKEPWKVVRKGRRRYPDLETNY
B11: DOMAIN_12187 (protein, listed as Canis lupus)
chain: B10 chain with H2Q, S8N, D13V, D20E, R27K, V48I, P75L, T79N, N80R
B12: DOMAIN_12158 (protein)
chain: SLGSELFRDVAIVFSQEEWQWLAPAQRDLYRDVMLETYSNLVSLGLAISKPDVISFLEQGKEPWMVERVVSRGLCPVLESR
modifications: Nomascus leucogenys
B13: DOMAIN_11813 (protein, listed as Canis lupus)
chain: SKVPVTFGDLAIYFSQEEWEWLSPIQKDLYEDVMLENYQNLVSLGLSFRRPNVITLLEKGKAPWVVEPVRKRRGLDSGFKC
B14: DOMAIN_11825 (protein, listed as Mandrillus leucophaeus)
chain: B13 chain with V3A, V5I, Q39R, V65M, V66I, K71R, G74A, L75P, F79S
B15: DOMAIN_11923 (protein, listed as Sus scrofa)
chain: SQVTVTFEDVAVLFSRDEWRKLGPSQKNLYQDVMLENYSNLVSLGLPFSKPKVISLLQQGEDPWKVEKESPGSFSPGWKSS
B16: DOMAIN_11999 (protein, listed as Canis lupus)
chain: SQSLVTFGDVAVNFSQEEWEWLNSAQRNLYRSVMLENYRNLVSLGLCVSKPDMISSLEQRKEPWMVKRKLTRGRCPDLKAV
B17: DOMAIN_11996 (protein, listed as Canis lupus)
chain: SEESVTFEDVAIYFSENEWTGLAPAQRVLYRDVMLENYGAVAALAAFPFPKPALISQLERGEAPWCKAPQGALDGEGPRGI
B18: DOMAIN_12001 (protein, listed as Mandrillus leucophaeus)
chain: NSGLLTFRDVAIEFSLEEWQCLDTAQKNLYRNVMLENYRNLAFLGVAVSKPDLITCLEKDKEPWNMKRHEMVDEPPGICPH
B19: DOMAIN_11760 (protein, listed as Neophocaena asiaeorientalis)
chain: KSKSKAPVTFGDLAIYFSQEEWEWLSPIQKDLYEDVMLENYQNLVSLGLSFRRPNVITLLEKGKAPWMVEPVKRRRGLGPL
B20: DOMAIN_12092 (protein, listed as Bos mutus)
chain: QEPVTFEDVAVYFTQNQWASLDSAQRALYREVMLENYANVASLVVSPFPRPDLISQLERGEAPWDPDPWEAEDLRGICPGG
B21: DOMAIN_12210 (protein, listed as Bos indicus)
chain: TQVSVTFDDVAVTFTQEEWGHLDPAQRTLYREVMLETCRLLMSLGCPVPRPELIYQQEHGQELWTVKRDLSRSTCAGYSSE
B22: DOMAIN_11701 (protein, listed as Capra hircus)
chain: DLDQVTFEDVVVDFTREEWGCLEPAQRTLYRDVMLETFRLLVSVGHWLPKPDVISLLEQEAELWAADEGGPRGMCPDLETR
B23: DOMAIN_11928 (protein, listed as Neophocaena asiaeorientalis)
chain: SQESVSFEDVAVYFTQNQWASLDSAQRTLYREVMLENYANVTSLAAFPFPKPDLIFQLERGKAPGGLDPWTPIRRKVRGVC
B24: DOMAIN_11672 (protein, listed as Suricata suricatta)
chain: SLEPDSFGDVAVLFSQEEWARLAPAQRELYRDVMLETYSHLVSLGLAVSKPDVISFLEQGKEPWLGEKAAAGGLGPELESR
B25: DOMAIN_11868 (protein, listed as Mandrillus leucophaeus)
chain: FQEPVTFEDVAVYFTQNEWASLHPMQRALYREVMLENYANVTSLSAFPFSKPDLIFQLEQGEAAWGPDPWTLAGGEALRGM
B26: DOMAIN_11858 (protein, listed as Canis lupus)
chain: PQKSVTFEDVAVYFTQTEWDGLSPAQRALYRDVMLENYGNVASLGFSLLKPAVISQLEGAGELEGPSPLAAGTEIGPQGLW
B27: DOMAIN_12191 (protein)
chain: B26 chain with P1R, Q2M, G21S, P24T, S47P, A60G, A71S, T73A, E74G, I75T
modifications: Muntiacus muntjak
B28: DOMAIN_11621 (protein, listed as Chrysochloris asiatica)
chain: KPGIVRFADVAVYFSREEWACLRPAQRALYRDVMRETYGHLGALGFPGPKPALISWMERESEAWSPAAQEPKEGENLGGAP
B29: DOMAIN_12133 (protein, listed as Canis lupus)
chain: AQVLVTFKDVAVTFTREEWGQLDLDQKALYQEVMLETYGLLVSLGHPVPKPELTHLLECGQELWKGKRGLSHSTCSGDDTK
B30: DOMAIN_11925 (protein, listed as Mandrillus leucophaeus)
chain: MEGLVMFQDLFIDFSQEEWECLDAAQKDLYRDVMMENYSSLVSLGLCIPKPDVISLLEQGKEPWMVSRDVLGGWCPDRLKK
B31: DOMAIN_12051 (protein)
chain: EVQETLTFDDVAVAFTWEEWQLLAPAQKALYRDVMLENHSNLVSVGFQASTPEVLSKLDQGEPWTMDDEVHCRTRSEVWKF
modifications: Muntiacus muntjak
B32: DOMAIN_11643 (protein)
chain: AQGYVTFEDVAVYFSQEEWRLLDEAQKLLYRNVMLENFSLLASLGLASSKTHEITQLESWEEPFMPAWEVVTSATPRGTWW
modifications: Nomascus leucogenys
B33: DOMAIN_12195 (protein, listed as Canis lupus)
chain: FQGSLTFSDVAIGFSQQEWECLDPVQKSLYRDVMMENYGNLVSLGYSISKPDVITLLEQGKEPWMVLREETKRWDTDSFLS
B34: DOMAIN_11865 (protein)
chain: RTGPLTFGDVAVEFSGEEWAWLDSAQRSLHRSVMLENYRNLASLGLCMSKPEMISSLEQSKEPWAVKAKSTRGRCPDLNLC
modifications: Muntiacus muntjak
B35: DOMAIN_11950 (protein, listed as Canis lupus)
chain: SQESVTFRDVAIDFSQEEWEWLQPAQRDLYRHVMLENYSHLVSLGLNISKPYVVSLLEQGKGPWLEKGDVRRDLFSESHGE
B36: DOMAIN_11749 (protein, listed as Chlorocebus sabaeus)
chain: FQEPVTFEDVAVYFTQNEWASLHPTQRALYREVMLENYANVTSLLAFPFPKPALISHLERGEAPWGPDPWDTEIPRGISQG

What follows are molecules tested on HBEGF locus. Conditions: high-throughput screen of dXR repression of the HBEGF gene; change in abundance of each domain in the library before and after diphtheria toxin selection.
Type: cell-based, human
B1 was tested, and the “Log2 (fold change)” value was 3.2246.
For B2, the “Log2 (fold change)” value was 2.9781.
With B3 the “Log2 (fold change)” value was 3.1667.
For B4, the “Log2 (fold change)” value was 4.0495.

Same assay, conditions: repressor domain in dXR, repression of the HBEGF gene; abundance of domain in library after vs before diphtheria toxin selection
B5 was tested, and the “Log2 (fold change)” value was 2.4029.
With B6 the “Log2 (fold change)” value was 3.4183.
B7 was tested, and the “Log2 (fold change)” value was 2.6974.
For B8, the “Log2 (fold change)” value was 3.0241.
In the case of B9, the “Log2 (fold change)” value is reported as 3.3006.
With B10 the “Log2 (fold change)” value was 4.1135.
In the case of B11, the “Log2 (fold change)” value is reported as 3.6477.
In the case of B12, the “Log2 (fold change)” value is reported as 3.0332.
B13 was tested, and the “Log2 (fold change)” value was 3.5195.
In the case of B14, the “Log2 (fold change)” value is reported as 3.9893.
In the case of B15, the “Log2 (fold change)” value is reported as 3.2271.
In the case of B16, the “Log2 (fold change)” value is reported as 3.7891.
In the case of B17, the “Log2 (fold change)” value is reported as 3.0831.
With B18 the “Log2 (fold change)” value was 2.4384.
With B19 the “Log2 (fold change)” value was 2.8102.
With B20 the “Log2 (fold change)” value was 3.1752.
B21 was tested, and the “Log2 (fold change)” value was 3.6136.
With B22 the “Log2 (fold change)” value was 2.5282.
B23 was tested, and the “Log2 (fold change)” value was 3.751.
B24 was tested, and the “Log2 (fold change)” value was 3.318.
In the case of B25, the “Log2 (fold change)” value is reported as 3.5158.
With B26 the “Log2 (fold change)” value was 3.6419.
In the case of B27, the “Log2 (fold change)” value is reported as 3.6138.
In the case of B28, the “Log2 (fold change)” value is reported as 3.2074.
With B29 the “Log2 (fold change)” value was 3.0204.
In the case of B30, the “Log2 (fold change)” value is reported as 3.5582.
B31 was tested, and the “Log2 (fold change)” value was 2.7925.
With B32 the “Log2 (fold change)” value was 2.3544.
With B33 the “Log2 (fold change)” value was 2.9023.
For B34, the “Log2 (fold change)” value was 3.0474.
In the case of B35, the “Log2 (fold change)” value is reported as 4.3869.
For B36, the “Log2 (fold change)” value was 3.2721.

Where a chain is given by its changes, count along the chain named.
